The target in the experiment is T1, IL-1R1 (Homo sapiens, UniProt P14778).
T1 sequence (P14778 18-569): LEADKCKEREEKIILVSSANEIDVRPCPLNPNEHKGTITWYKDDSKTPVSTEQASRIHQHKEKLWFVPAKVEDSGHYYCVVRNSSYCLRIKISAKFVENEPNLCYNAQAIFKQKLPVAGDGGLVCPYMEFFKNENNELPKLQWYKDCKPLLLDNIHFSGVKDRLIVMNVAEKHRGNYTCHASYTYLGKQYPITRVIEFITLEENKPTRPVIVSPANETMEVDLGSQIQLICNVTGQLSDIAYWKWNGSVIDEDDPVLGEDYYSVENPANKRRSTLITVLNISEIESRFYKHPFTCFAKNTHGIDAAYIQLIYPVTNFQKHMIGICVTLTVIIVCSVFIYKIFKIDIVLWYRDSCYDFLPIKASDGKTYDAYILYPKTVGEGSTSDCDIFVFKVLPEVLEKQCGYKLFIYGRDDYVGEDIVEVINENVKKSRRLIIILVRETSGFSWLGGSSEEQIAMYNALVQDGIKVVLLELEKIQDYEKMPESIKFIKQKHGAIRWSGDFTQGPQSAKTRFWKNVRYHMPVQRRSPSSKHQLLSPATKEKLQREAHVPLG
The experiment can be described thus: IL-1beta induced IL-6 release in primary human COPD lung fibroblasts. In kind it is cell-based. The note with it: IL-1beta 0.5 ng/ml (approx. EC80), 24 hours, ELISA.

B1: Antibody 6: human antibody that binds specifically to IL-1R1; VH SEQ ID NO: 1, VL SEQ ID NO: 5 (antibody, V domains shown)
VH: [letters of about 100 residues left out]PLYYYDEQYGVVYDAFVWGRGTMVTVSS
VL: QSVLTQPPSVSGAPGQRVTISCTGSSSNIGAGYDVHWYQQLPGTAPKLLIYGDTHRPSGVPDRFSGSKSGTSASLVIAGLQAEDEADYYCQSYDTVRLHHVFGGGTKLTVL
Turning to B1, the “inhibition of IL-1beta induced IL-6 release” value was “completely inhibited”. Also, under “listed as antibody 6”, the “inhibition of IL-1beta induced IL-6 release” value was “inhibited”.

For the origin of these results see patent US20130149312A1, “COMPOSITIONS AND METHODS FOR TREATING COPD EXACERBATION” (MCMASTER UNIVERSITY, priority 2010, published 2013).
